Laboratory results published in patent CN101663321A.

Assays:
[1] = molecular target: denatured soluble hLIGHT (boiled in 2x SDS sample buffer) (human) (UniProt O43557); experiment: dot blot: serial dilutions of hLIGHT spotted on PVDF, probed with 5 μg/ml antibody
[2] = molecular target: soluble FLAG-tagged recombinant hLIGHT (Gly66-Val240 with N-terminal FLAG), native form (human) (UniProt O43557); experiment: as above

Binder	lowest detection limit (dot blot) [1]	lowest detection limit (dot blot) [2]
E1 antibody (produced by hybridoma 124E1, ATCC PTA-7729) (antibody, human IgG1, V domains shown) VH: EVQLVESGGGLVQPGGSLRLSCAASGFTFSRFNMNWVRQAPGKGLEWVSYISSSSYTIYYADSVKGRFTISRDNAKNSLDLQMNSLRDEDTAVYYCARSIAAAFDYWGQGALVTVSS VL: [letters of about 100 residues left out]YTFGQGTKLEIK	139 ng	23 ng
E13 antibody (produced by hybridoma 124E13, ATCC PTA-7842) (antibody, human IgG1, V domains shown) VH: EVQLVESGGGLVKPGGSLRLSCAASGFTLSNAWMSWVRQAPGKGLEWVGRIKSKIDGGTTDYAAPVKGRFTISRDDSKNTLFLQMNSLKTEDTAVYYCTTAMAGAFGFWGQGTLVTVSS VL: [letters of about 120 residues left out]	0.64 ng	0.64 ng
